In PubChem BioAssay AID463173 (ICCB-Longwood Screening Facility, Harvard Medical School, 2010):
About 4,300 (8.3%) of roughly 52,000 compounds were called active. Cut-off read from the data, not from the text of the source: active = survival mostly below about 52% (no sharp cut-off); inactive = mostly above about 56%. The list shows a part of the results.

Each compound was assayed on DeltatarO mutant (assay: growth inhibition of S. aureus wild type versus tarO mutant, primary screen, teichoic acid synthesis inhibitors, RN4220, OD600 (AID 463173)). Conditions: OD600, 18 h, hits give low values, screened at 18.75 µg/mL (by protocol).

Q: For `Cc1c(C(=O)Nc2ccc(F)cc2)oc2ccc(S(=O)(=O)N3CCCCCC3)cc12`, which survival is on record?
A: inactive: 99%

Q: `CCOC(=O)c1c(C)[nH]c(C)c1S(=O)(=O)N1CCCC(C(=O)Nc2cccc(CC)c2)C1` (stereo not given) was tested. Which survival did it give?
A: inactive: 85%

Q: With `COc1cccc(NC(=O)/C(C#N)=C/c2c(C)n(Cc3ccccc3)c3ccccc23)c1` as the compound, how does the survival read?
A: inactive: 82%

Q: For `CCOc1ccc(NC(=O)CCc2c(C)nc3nc(-c4cc(OC)cc(OC)c4)nn3c2C)cc1`, which survival is on record?
A: inactive: 78%

Q: With `CC(=O)N1CCc2cc(Br)cc(S(=O)(=O)NCCc3cccc(C)c3)c21` as the compound, how does the survival read?
A: inactive: 75%

Q: How did the survival turn out when `CS(=O)(=O)N(CC(=O)Nc1cccnc1)c1ccc(Cl)cc1` was run?
A: inactive: 91%

Q: How did the survival turn out when `Fc1ccc(C(NCCc2ccc(Cl)cc2)c2nnc(-c3ccccc3Cl)o2)cc1` (stereo not given) was run?
A: active: 26%

Q: With `COc1cc(C(=O)OCn2c(=O)oc3ccccc32)cc(OC)c1OC` as the compound, how does the survival read?
A: inactive: 81%

Q: Which survival does the source give for `COCCCNc1nc(CC(C)C)nc2c1nnn2Cc1ccccc1` here?
A: inactive: 81%

Q: How did the survival turn out when `O=C(Nc1ccc(Cl)c(C(F)(F)F)c1)c1nc2ccccc2nc1N1CCCCC1` was run?
A: inactive: 80%

Q: Which survival does the source give for `COc1ccccc1Nc1nc(N)nc(N)c1S(=O)(=O)c1ccccc1` here?
A: inactive: 111%

Q: With `COc1ccc(-n2nnc(-c3nsc(NC(=O)c4cccc(C)c4)n3)c2C)cc1OC` as the compound, how does the survival read?
A: inactive: 88%

Q: With `COc1ccc(-c2[nH]c3c(c2-c2c(-n4cccc4)n(C)c(=O)[nH]c2=O)c(=O)[nH]c(=O)n3C)cc1F` as the compound, how does the survival read?
A: inactive: 63%

Q: Which survival does the source give for `Cc1ccc(S(=O)(=O)CC(=O)Nc2nc3c(C)cccc3s2)cc1` here?
A: inactive: 88%

Q: `Cc1ccc(-c2c3c(=O)n(C)c(=O)n(C)c3c3cnc4ccccc4n23)cc1` was tested. Which survival did it give?
A: inactive: 128%

Q: Which survival does the source give for `CSc1ccc(/C=C/c2nc3ccccc3n2S(=O)(=O)c2ccc(Br)cc2)cc1` here?
A: inactive: 68%

Q: For `Cc1ccc(N2CCN(Cc3nnc(-c4ccccc4F)o3)CC2)c(C)c1`, which survival is on record?
A: active: 22%

Q: With `CN(C)N1C(=O)CC(n2cnc3ccccc32)C1=O` (stereo not given) as the compound, how does the survival read?
A: inactive: 75%

Q: For `Cc1cccn2c(=O)c3cc(C#N)c(=O)n(-c4nnc(SCc5ccc(F)cc5)s4)c3nc12`, which survival is on record?
A: inactive: 109%

Q: Which survival does the source give for `COc1ccccc1Nc1ncc2c(n1)CCN(Cc1cc(F)cc(F)c1)C2` here?
A: inactive: 87%

Q: For `Cc1cc(C)c(NC(=O)CSc2nc(=O)n(Cc3cccnc3)c3c2CCC3)c(C)c1`, which survival is on record?
A: inactive: 104%

Q: For `COc1cccc(NC(=O)Cn2nnc(C(=O)NCc3ccc4c(c3)OCO4)c2N)c1`, which survival is on record?
A: inactive: 102%

Q: Which survival does the source give for `CCOCCCNC(=O)c1cn(CC(C)C)c(=O)c2c1c1ccccc1n2C` here?
A: inactive: 87%

Q: With `Cn1c(SCC(=O)Nc2nc3ccccc3s2)ncc(C(=O)Nc2ccc(Cl)cc2)c1=O` as the compound, how does the survival read?
A: inactive: 78%

Q: With `CSc1ncc(Cl)c(C(=O)N(C)c2ccccc2)n1` as the compound, how does the survival read?
A: inactive: 110%

Q: With `CCN1CCN(c2ncc3c(n2)CCN(Cc2cccc(F)c2F)C3)CC1` as the compound, how does the survival read?
A: inactive: 84%

Q: Which survival does the source give for `COC(=O)c1ccccc1NC(=O)c1nn(C)c2c1COc1ccccc1-2` here?
A: inactive: 75%

Q: For `Cc1ccccc1N1C(S)=C(C#N)C(=O)NC1c1ccco1` (stereo not given), which survival is on record?
A: inactive: 67%

Q: With `O=c1[nH]nc(SC(F)(F)C(F)(F)C(F)(F)F)c(=O)[nH]1` as the compound, how does the survival read?
A: active: 37%

Q: For `CCc1nn(CC(=O)NCCc2ccc(OC)c(OC)c2)c(=O)c2cc3occc3n12`, which survival is on record?
A: inactive: 131%

Q: How did the survival turn out when `CCOC(=O)c1ccc(NC(=O)CSc2nc(-c3ccc(F)cc3)cc(C(F)(F)F)c2C#N)cc1` was run?
A: inactive: 71%

Q: How did the survival turn out when `CCOc1ccc(NC(=O)C2=C(C)C(=O)OC23CCC(C)CC3)cc1` (stereo not given) was run?
A: inactive: 66%

Q: With `COc1ccccc1NC(=O)c1ccc(-c2nc(COc3ccc(C)cc3)c(C)o2)cc1` as the compound, how does the survival read?
A: inactive: 83%

Q: With `Cc1ccc(NC(=O)Nc2c(C)n(C)n(-c3ccccc3)c2=O)c(Cl)c1` as the compound, how does the survival read?
A: inactive: 87%

Q: How did the survival turn out when `O=C(CSc1ncc2c(n1)-c1cc(Cl)ccc1N(Cc1ccccc1)S2(=O)=O)NCCc1ccccc1` was run?
A: inactive: 89%

Q: How did the survival turn out when `CS(=O)(=O)Nc1ccc(-c2nc3ccccc3s2)cc1` was run?
A: inactive: 48%

Q: With `COc1ccc(NC(=O)c2cccn2-c2nnc(N3CCCCC3)s2)c(OC)c1` as the compound, how does the survival read?
A: inactive: 98%

Q: Which survival does the source give for `CC(NS(=O)(=O)c1ccc(Br)cc1)C(=O)NCc1ccco1` (stereo not given) here?
A: inactive: 110%

Q: With `CCOC(=O)COc1cc(C)c(Cl)cc1C(=O)c1ccn2nc(-c3ccc(OC)cc3)cc2n1` as the compound, how does the survival read?
A: inactive: 92%

Q: With `COc1cc(OC)c(NC(=O)CC(C)S(=O)(=O)c2ccc3c(c2)NC(=O)CO3)cc1Cl` (stereo not given) as the compound, how does the survival read?
A: inactive: 89%

Q: For `CCn1cc(S(=O)(=O)c2ccc(OC)cc2)c(=O)c2cc(F)c(N3CCCCCC3)cc21`, which survival is on record?
A: inactive: 84%

Q: Which survival does the source give for `COc1ccc(S(=O)(=O)NCCc2csc(-c3cccc(F)c3)n2)cc1OC` here?
A: inactive: 80%

Q: With `CCOc1ccc(/C=C/C(=O)Nc2sc3c(c2C(=O)OC)CCCC3)cc1` as the compound, how does the survival read?
A: inactive: 110%

Q: How did the survival turn out when `COc1ccc(-c2nn(-c3ccc(C)c(Cl)c3)c3c2cnc2cc(OC)c(OC)cc23)cc1` was run?
A: inactive: 94%

Q: With `CCOc1ccc2[nH]c(=O)c(CN(CC3COCCO3)C(=O)C3CC3)cc2c1` (stereo not given) as the compound, how does the survival read?
A: inactive: 86%

Q: With `CCOc1cccc(CNC(=O)c2ccc(N3CCCC3)c(NC(=O)Nc3ccccc3CC)c2)c1` as the compound, how does the survival read?
A: inactive: 71%

Q: How did the survival turn out when `CCOC(=O)c1c(C)[nH]c(C)c1S(=O)(=O)N(C)CC(=O)NCc1ccc(C)cc1` was run?
A: inactive: 70%

Q: How did the survival turn out when `CC(C)c1ccc(NC(=O)Cc2ccc(NC(=O)N3CCCCc4ccccc43)cc2)cc1` was run?
A: inactive: 94%

Q: For `COc1ccc(C2CC(=O)c3cc(-c4nc(-c5ccc(C)cc5)cs4)c(=O)[nH]c3C2)cc1` (stereo not given), which survival is on record?
A: inactive: 76%

Q: For `CCC1CN(C(=O)NCc2ccc(F)cc2)c2cc(Cl)ccc2O1` (stereo not given), which survival is on record?
A: active: 39%

Q: For `CCOc1ccc2nc(NCCCNC(=O)c3cc(OC)c(OC)c(OC)c3)c(C#N)cc2c1`, which survival is on record?
A: inactive: 76%

Q: `CCCCOc1ccc(CNC(=O)CN2C(=O)CCn3nc(-c4cn(C)c5ccccc45)cc32)cc1` was tested. Which survival did it give?
A: inactive: 77%

Q: `COc1ccc(NC(=O)C2CCCN(S(=O)(=O)c3c(C)[nH]c(=O)[nH]c3=O)C2)cc1` (stereo not given) was tested. Which survival did it give?
A: inactive: 138%

Q: With `CCOc1ccc(NC(=O)CSc2nc3ccsc3c(=O)n2CC)cc1` as the compound, how does the survival read?
A: inactive: 89%

Q: How did the survival turn out when `CCN(CC)C(=O)c1ccc2c(c1)N(Cc1ccccc1F)C(=O)c1ccccc1S2=O` (stereo not given) was run?
A: inactive: 125%
